{
  "source": "the supplement of paper PMC4723716",
  "note": "Where “and” joins values, the source holds several entries; their conditions need not be identical. Equal entries are not always repeated. ± gives the uncertainty stated by the source. Whole data set: some 9,900 compounds, median “viability index relative to DMSO control” near 1, cut for the lowest 2% near 0.85. Some of the results follow.",
  "data": [
    {"test_system": "Plasmodium falciparum NF54 stage V gametocytes", "experiment": "viability index relative to DMSO control (fraction); higher = less gametocyte killing", "conditions": "2.5 µM, library set: Broad Institute DOS, incubation time: 72 h", "in_short": "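Compound at 2.5 µM was incubated for 72 hr at 37°C under low oxygen with P. falciparum NF54 stage V gametocytes (0.75% gametocytemia, 1.25% hematocrit, 10 µl, serum-free screening medium) in 1,536-well plates. Staining used 3 µl of 2.5 µM MitoTracker Red CMXRos plus 0.13% saponin for one to two hours, and red particles of 20–70 µm2 were counted in one imaged field per well. Each viability index is that count relative to the plate mean of solvent-only wells.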", "values": [
      {"smiles": "CN(C)C(=O)c1ccc(-c2ccc([C@@H]3[C@H]4CNC[C@@H]3N4S(=O)(=O)c3ccc(Cl)cc3)cc2)cc1", "viability index": "1.17 ± 0.052"},
      {"smiles": "CC(C)C#Cc1ccc([C@@H]2[C@@H](C#N)N(C(=O)c3cccc(F)c3)[C@H]2CO)cc1", "viability index": "1.0706 ± 0.00037"},
      {"smiles": "Cc1noc(C)c1NC(=O)N(C)C[C@@H]1OCc2cn(nn2)CCCC(=O)N([C@H](C)CO)C[C@H]1C", "viability index": "1.05 ± 0.037"},
      {"smiles": "CN(C)C(=O)c1ccc(-c2ccc([C@@H]3[C@H](C#N)N[C@H]3CO)cc2)cc1", "viability index": "1.11 ± 0.13"},
      {"smiles": "COc1cccc(-c2ccc([C@@H]3[C@@H]4CN(S(=O)(=O)Cc5ccccc5)C[C@H]3N4)cc2)c1", "viability index": "0.808 ± 0.031"},
      {"smiles": "C[C@H](CO)N1C[C@H](C)[C@H](CN(C)C(=O)Nc2cccc(Oc3ccccn3)c2)OCc2cnnn2CCCC1=O", "viability index": "1.02 ± 0.022"},
      {"smiles": "O=C(c1ccncc1)N1C[C@H]2[C@@H](c3ccccc31)[C@@H](CO)N2Cc1ccccc1F", "viability index": "1.03 ± 0.053"},
      {"smiles": "CN1C(=O)c2cc(NC(=O)c3cccc(F)c3)ccc2OC[C@H]2O[C@@H](CC(=O)NCc3ccccc3Cl)CC[C@@H]21", "viability index": "1.06 ± 0.031"},
      {"smiles": "C[C@H]1CCCCO[C@@H](CN(C)C(=O)CCC(F)(F)F)[C@@H](C)CN([C@@H](C)CO)C(=O)c2cc(NC(=O)C3CCCCC3)ccc2O1", "viability index": "1.06 ± 0.13"},
      {"smiles": "N#C[C@H]1[C@@H](c2ccccc2C2=CCCC2)[C@H](CO)N1C(=O)C1CCOCC1", "viability index": "1.09 ± 0.17"},
      {"smiles": "COc1cccc(NC(=O)Nc2ccc3c(c2)C(=O)N(C)C[C@@H](OC)[C@H](C)CN(CC2CC2)[C@H](C)CO3)c1", "viability index": "1.06 ± 0.035"},
      {"smiles": "O=C(Cc1cccnc1)N1CC(=O)N2[C@@H](CO)[C@@H](c3ccc(C#CC4CCCCC4)cc3)[C@@H]2C1", "viability index": "1.04 ± 0.028"},
      {"smiles": "CCCNC(=O)Nc1ccc2c(c1)OC[C@H](C)N(Cc1cncnc1)C[C@H](C)[C@H](OC)CN(C)C2=O", "viability index": "1.06 ± 0.075"},
      {"smiles": "C[C@H]1CN([C@@H](C)CO)C(=O)c2ccccc2-c2ccccc2CO[C@H]1CN(C)S(=O)(=O)c1cccc(C#N)c1", "viability index": "0.982 ± 0.11"},
      {"smiles": "COc1ccc(NC(=O)Nc2cccc3c2O[C@H](CN(C)Cc2ccc(C(=O)O)cc2)[C@H](C)CN([C@H](C)CO)C3=O)cc1", "viability index": "0.884 ± 0.2"},
      {"smiles": "COc1ccc(CN(C)C[C@@H]2Oc3ccc(NC(=O)Nc4ccc5c(c4)OCO5)cc3CC(=O)N([C@H](C)CO)C[C@H]2C)cc1", "viability index": "0.939 ± 0.081"},
      {"smiles": "COc1ccc2c3c([C@@H](CO)N(CC4CC4)C[C@]33CCN(CC3)S(=O)(=O)c3cccs3)n(C)c2c1", "viability index": "0.991 ± 0.044"},
      {"smiles": "COCCNC(=O)C[C@H]1CC[C@@H]2[C@H](COc3ccc(NC(=O)Nc4cccc(F)c4)cc3C(=O)N2C)O1", "viability index": "1.16 ± 0.029"},
      {"smiles": "CN1C(=O)c2cc(NC(=O)C3CCOCC3)ccc2OC[C@@H]2O[C@@H](CC(=O)NCc3ccccc3F)CC[C@H]21", "viability index": "1 ± 0.012"},
      {"smiles": "Cc1ccc(S(=O)(=O)N(C)C[C@H]2Oc3c(NS(C)(=O)=O)cccc3C(=O)N([C@H](C)CO)C[C@H]2C)cc1", "viability index": "0.988 ± 0.11"},
      {"smiles": "C[C@H](CO)N1C[C@H](C)[C@H](CN(C)C(=O)NC2CCCCC2)Oc2c(NC(=O)c3cnccn3)cccc2C1=O", "viability index": "1.03 ± 0.034"},
      {"smiles": "C[C@@H]1CN([C@@H](C)CO)C(=O)c2cccc(NC(=O)c3cnccn3)c2O[C@H]1CN(C)C(=O)NC1CCCCC1", "viability index": "0.861 ± 0.13"},
      {"smiles": "COc1cccc(NC(=O)C[C@@H]2CC[C@@H]3[C@H](COc4ccc(NC(=O)C5CC5)cc4C(=O)N3C)O2)c1", "viability index": "1.14 ± 0.079"},
      {"smiles": "C[C@@H]1CN([C@@H](C)CO)C(=O)c2cc(NC(=O)C3CCCCC3)ccc2O[C@@H](C)CCCCO[C@@H]1CN(C)C(=O)CCC(F)(F)F", "viability index": "1.05 ± 0.025"},
      {"smiles": "O=C(Nc1cccc(F)c1)N1CCCCN2[C@H](C1)[C@@H](c1ccc(C#Cc3cccnc3)cc1)[C@@H]2CO", "viability index": "0.81 ± 0.05"},
      {"smiles": "Cc1noc(C)c1C(=O)N(C)C[C@@H]1OCc2ccccc2-c2ccccc2C(=O)N([C@@H](C)CO)C[C@@H]1C", "viability index": "0.983 ± 0.044"},
      {"smiles": "CNC[C@@H]1OCCCC[C@@H](C)Oc2ccc(NS(=O)(=O)c3ccc(F)cc3)cc2C(=O)N([C@@H](C)CO)C[C@@H]1C", "viability index": "1.01 ± 0.019"},
      {"smiles": "CN1C(=O)c2cc(NC(=O)c3cccc(F)c3)ccc2OC[C@@H]2O[C@H](CC(=O)NCC3CCCCC3)CC[C@H]21", "viability index": "1.12 and 1.19"},
      {"smiles": "N#C[C@@H]1[C@H](c2ccccc2)[C@@H](CO)N1C(=O)c1ccccc1F", "viability index": "1.11 ± 0.031"},
      {"smiles": "CC(C)NC(=O)N(C)C[C@@H]1Oc2ccc(NC(=O)c3ccncc3)cc2C(=O)N([C@H](C)CO)C[C@@H]1C", "viability index": "0.954 ± 0.054"},
      {"smiles": "CN1C(=O)c2cc(NS(C)(=O)=O)ccc2OC[C@H]2O[C@H](CC(=O)NCc3ccccc3)CC[C@@H]21", "viability index": "1.19 ± 0.015"},
      {"smiles": "C[C@H](CO)N1C[C@H](C)[C@H](CN(C)Cc2ccncc2)OCCCC[C@H](C)Oc2ccc(NC(=O)Cc3ccccc3)cc2C1=O", "viability index": "1.1 ± 0.042"},
      {"smiles": "C[C@@H](NC(=O)C[C@@H]1C=C[C@@H](NC(=O)c2cccnc2)[C@@H](CO)O1)c1ccccc1", "viability index": "1.05 ± 0.014"},
      {"smiles": "C[C@H](CO)N1C[C@H](C)[C@H](CN(C)S(=O)(=O)c2ccc(Cl)cc2)Oc2c(NC(=O)Nc3ccc(F)cc3)cccc2C1=O", "viability index": "1.13 ± 0.045"},
      {"smiles": "CNC(=O)C[C@@H]1CC[C@@H]2[C@H](COC[C@@H](O)CN2Cc2ccccc2F)O1", "viability index": "1.08 ± 0.086"},
      {"smiles": "CN(C)C(=O)C[C@H]1CC[C@H]2[C@@H](COC[C@@H](O)CN2S(=O)(=O)c2ccccc2Cl)O1", "viability index": "1.08 ± 0.04"},
      {"smiles": "COCC(=O)N1CC[C@@H]2[C@H](CO)Nc3ccc(-c4ccc(C(=O)N(C)C)cc4)cc3[C@@H]21", "viability index": "1.14 ± 0.038"},
      {"smiles": "COc1ccc(S(=O)(=O)N(C)C[C@H]2Oc3c(cccc3N(C)C)C(=O)N([C@@H](C)CO)C[C@H]2C)cc1", "viability index": "0.959 ± 0.068"},
      {"smiles": "N#C[C@@H]1[C@@H](c2ccccc2-c2cccc(F)c2)[C@H](CO)N1C(=O)C1CC1", "viability index": "1.11 ± 0.071"},
      {"smiles": "O=C(NCc1ccc(F)cc1)[C@H]1[C@H](CO)[C@H]2Cn3c(cccc3=O)[C@H]2N1C(=O)c1cccnc1", "viability index": "1.067 ± 0.0055"},
      {"smiles": "CCN1CC(=O)N2[C@H](C1)[C@H](c1ccc(Br)cc1)[C@@H]2CO", "viability index": "0.956 ± 0.1"},
      {"smiles": "C[C@@H]1CN([C@@H](C)CO)C(=O)CCCn2nncc2CO[C@@H]1CN(C)S(=O)(=O)c1ccccc1C#N", "viability index": "1.1 ± 0.047"},
      {"smiles": "O=C(O)[C@@H]1[C@@H](CO)[C@@H]2Cn3c(ccc(-c4ccccc4F)c3=O)[C@@H]2N1Cc1ccccc1", "viability index": "1.05 ± 0.038"},
      {"smiles": "COc1ccc(CN(C)C[C@H]2Oc3ccc(NC(=O)Nc4ccc5c(c4)OCO5)cc3CC(=O)N([C@@H](C)CO)C[C@@H]2C)cc1", "viability index": "0.981 ± 0.048"}
    ]}
  ]
}
